The list shows a part of the results.
tested on: PfAP2-HC AP2 domain (GST-tagged); assay: gcPBM binding intensity (ln(normalized median fluorescence intensity)); higher = stronger DNA binding
Outline: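 Binding intensity is the highest Masliner-normalised natural-log median intensity over replicate spots in either probe orientation. To obtain it, GST-tagged P. falciparum DNA-binding domains made in E. coli were incubated for 1 h on an Agilent 4 × 180k array of primer-extended double-stranded 36-bp intergenic genomic probes plus negative controls. Detection used Alexa488 anti-GST antibody with scanning at 488 nm.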

Row | Sequence | gcPBM binding intensity (ln)
1 | ATATATATATATATTACACACTTTTTCTTTTTTTTT [CACACA_site2780] | 9.81
2 | AATAAACATAAATAAAAATTATAAAATATATATATG [CACACA_negctrl_site1709] | 9.75
3 | TTTACATTTCAGTAGACACACAAAAAATAATACTAA [CACACA_site512] | 9.63
4 | GTTCCATGAGTATATACATGCATATATCTAGTTTAT [TGCATGCA_site388] | 9.87
5 | TTTTAAATAAAAAAATTAAATTAAAATATATAAAAA [XGTACX_negctrl_site490] | 9.34
6 | TGTTTATACAATATTTGTACATATATTTTTATTTTT [XGTACX_site4104] | 9.76
7 | CATTTTTACAACGTTGCACACTTCAAAAGGTTTACA [CACACA_site2760] | 9.79
8 | GATACTCTCTTTTAATGTACAAAATTTTAAAAATTA [XGTACX_site1781] | 9.2
9 | TATAAAAAAAAAAAAAGTACTTAAATATAAATAAAT [XGTACX_site5052] | 9.66
10 | AATTTATGTTTTAAAAGTACTTTTCTAATTTATAAA [XGTACX_site1593] | 9.75
11 | TATGTACAGACATATACACACCTCTATAATCTATAT [CACACA_site6482] | 9.87
12 | CTAAAGTAAATTTAAGCACACACAACGAATTTTTAT [CACACA_site8599] | 10.2
13 | AATTAAAAAAAATACACACACACATACCCATATATA [CACACA_site5767] | 10.4
14 | AATGATATATTATAAACACACAAAGATGAATATATA [CACACA_site2818] | 9.92
15 | ATTCATTCATATGTTACACACACACCCACCCATAAA [CACACA_site9066] | 10.1
16 | TACCCTCGTATATATATACACACTAAAATACAGACA [CACACA_site4154] | 9.66
17 | TTTATCGAATATAATAGTACATAAAAAAAAAAAAAA [XGTACX_site1734] | 9.33
18 | AGATTATATAAAAAAGTGCATATTTTCATTTTTTTT [GTGCAC_site9448] | 9.55
19 | CATTAAAATGGTAAATGTACATATCCATCTTCTCAC [XGTACX_site4636] | 9.81
20 | TCCCTTTGTATATATATATAAATATATATATATATA [CACACA_negctrl_site157] | 9.65
21 | AAAAAAGAAAAAAACTGTACATGATAAATATTTATT [XGTACX_site7270] | 9.71
22 | ACATTTTTTTTGTGAGTCTTTGCGGCATCAAAATTT [XGTACX_negctrl_site348] | 9.5

Row | Sequence | gcPBM binding intensity (ln)
23 | TTATGAAGCAGACATGCATGTTATGGCTTAAATAAT [TGCATGCA_site492] | 9.65
24 | TTTAAGCAAAAACACACACACATATATATATATATA [CACACA_site349] | 11.1
25 | AAAAAATGATAATATACACACTTATGGGAGAGCGCA [CACACA_site5398] | 9.99
26 | TATAAATATATATACACACACATATATATTATATAT [CACACA_site596] | 10.3
27 | ATTATGTTTCTTTTTTTTTTTAAAGGATGTCTTTTT [CACACA_negctrl_site974] | 9.5
28 | AATATTAAACAAAATAAATATATAAAAAATAAATAA [GTGCAC_negctrl_site93] | 9.77
29 | AAGTTATATTTGTGTACACATAATTTTATACTAATA [CACACA_site5553] | 9.79
30 | TATTTAATACGGACTCATAAATCTTAATAAAAAAAA [CACACA_negctrl_site434] | 9.42
31 | TGATAATAAGCATACACACACACACTAGAAAAAAAA [CACACA_site4558] | 11.5
32 | TGTTCTTTATTTTATTGTACTTTTAAAATTCCTTTA [XGTACX_site8058] | 9.73
33 | TTATTTATAAACATATGTACTAATACATGATTAACA [XGTACX_site7645] | 9.47
34 | GACATATATATAAAATGTACATATATATTTACATAT [XGTACX_site7822] | 9.82
35 | TATAAAAAAAACGAAAAAAAAAAAAAAAATACAGGA [TGCATGCA_negctrl_site585] | 9.82
36 | ATATATTTTTAAAAAAATTAAGAATTTTACATCTCC [CACACA_negctrl_site1450] | 9.32
37 | AAAAAAAAAAGACATGCATACGCTAATTTTTAGTTG [TGCATGCA_site300] | 9.51
38 | TATTATAATAAGAAGTGTACGTGTTTTTATAAATAA [XGTACX_site575] | 9.5
39 | TTACAAAATAAGAGGCACAAACACAAAAAAAAATAA [CACACA_negctrl_site574] | 9.82
40 | AAAAAAAAAAGACACACACACAAAAAAAGATATATA [CACACA_site6645] | 10.7
41 | TAGAATAAGATAGATATACACACCATTATAAATATA [CACACA_site2500] | 9.87
42 | TGTAAAAAATTTAACACACACATATATATATATATA [CACACA_site2585] | 9.76
43 | ATTACAATATATACGTGTACATATTACCACCGCTAC [XGTACX_site2308] | 9.63
44 | ATAAAAATATTACGCACACACAAACTTATTCATTAT [CACACA_site1969] | 10.2

Row | Sequence | gcPBM binding intensity (ln)
45 | GTAACTTTATTATACTGTACTATTATATAAGCACAC [XGTACX_site2859] | 9.79
46 | TTGTTCAAACAAAAAATAAAATAATTGAAAATAAAA [CACACA_negctrl_site812] | 9.51
47 | AGTTGTTACGAACATACACACGAACATAGACACGGA [CACACA_site8102] | 9.91
48 | TTATTTAAATAATATGTACACACATTTAAAAAATTA [CACACA_site8912] | 9.52
49 | AAAAAAAAATATATAAACACACATATTTATATACAC [GTGCAC_negctrl_site545] | 9.76
50 | ATGAGTGTAATAATATGTACATAACCTACATAATTT [XGTACX_site852] | 9.85
51 | GGATGCACACAAAAGGGTACATAAGAAAAAAACAGG [XGTACX_site8570] | 9.89
52 | CACGCACAGATATATACACACTTTTATTTAAATAAC [CACACA_site6852] | 9.91
53 | AAAAATAAAATGGACACACACGTTCAAATTTAGATT [CACACA_site5186] | 10.1
54 | TGGGTAAACAAACACACACACATATATATATATATA [CACACA_site1992] | 10.3
55 | AAATATATATATAGTTGTACATATATCGTATATATT [XGTACX_site7867] | 9.8
56 | TTCACTAATAAATACGCACACATATACAGATATATA [CACACA_site4887] | 9.94
57 | AAAAAAAATTATTATGAACACACATTTATTATATTC [CACACA_site8443] | 9.7
58 | ATTCTACACAGACATACACACATATATATATATATA [CACACA_site5826] | 9.93
59 | TATATATGTTTATGTAGTACTATATATCCCTTTCTT [XGTACX_site7049] | 9.83
60 | TAATATGATCTTAATAGTACTTTATTAATAATAACC [XGTACX_site1953] | 9.56
61 | GCACACATATAATAATGTACATATATATATTTAAAA [XGTACX_site4561] | 9.86
62 | TATTGATTATTTGAATGTACTTATTATATTAAATAT [XGTACX_site1304] | 9.53
63 | AATAAAAATATTTTTACATGCAAATGTTATATATTT [TGCATGCA_site1056] | 9.56
64 | ACACGCACATATATATAAATATATATATATATAAAT [CACACA_negctrl_site1781] | 10.1
65 | GTGATTAATATATACACACATACATATATATATATA [CACACA_site2817] | 9.81
66 | ATATATATGTATACATGTACATATTTTATTATGTGC [XGTACX_site7207] | 9.89

Row | Sequence | gcPBM binding intensity (ln)
67 | GGTATACACAAGTATACACACATATAAATATAAATA [CACACA_site7511] | 9.88
68 | TCTTTTAACACATGTGATATTATTTAATAACAATAA [CACACA_negctrl_site339] | 9.55
69 | TGTACATATATATATATATATGTTACTGAAATAAAA [CACACA_negctrl_site1658] | 9.57
70 | AAGAATAACTTTTATACATGCAGCATAATATATTGT [TGCATGCA_site605] | 9.64
71 | CTTTTATAATTCATATGTACTTATTTTTAACATAGG [XGTACX_site7808] | 9.55
72 | AATAACCACAGACACACACACATATAAATATAAATA [CACACA_site7631] | 10.9
73 | TTATTTTATTTAGGGTGTACCCAATTTTTCCATATG [XGTACX_site4957] | 9.54
74 | ACTGTAATATTGAAAGTGCATTAAAGTGTATATTAT [GTGCAC_site9970] | 9.78
75 | ATTTATATTTATAAATGTACACATATATATTTCATT [XGTACX_site2723] | 9.7
76 | TCCTATAATTTTTTAATCAAAATATTTTATCCTTTG [CACACA_negctrl_site793] | 9.6
77 | AAAAATTTTTTACATCGTACAGATATATATAATAAA [XGTACX_site3331] | 9.44
78 | TTACAGATATTTATCTGTACATATATTTAAAAATAT [XGTACX_site7431] | 9.4
79 | TAATTTTTTTAAAAGCGTACATTTAAAAAAAAATAT [XGTACX_site2736] | 9.32
80 | AAAAGTAAAAAAAAAAAAAGTAAAAAAAAAAAAAAA [CACACA_negctrl_site389] | 8.8
81 | TTTTTAAATTCTTTAATATGTTTTATATATCAAAAT [CACACA_negctrl_site75] | 9.44
82 | TCTTATCATTTTAAATCACACACATATATATATATA [CACACA_site8925] | 9.9
83 | ATACATAAATTTTGTACACACAAAAAAAAAAAAGCT [CACACA_site1351] | 9.97
84 | TTTATATATATAAATATGTAGATAACAATATTCTGA [TGCATGCA_negctrl_site554] | 9.47
85 | TTATTCCTTTTCCTTTTTTTTTTTTAACCAAAAAAA [CACACA_negctrl_site309] | 9.4
86 | AAAATATACATATATGCATGCATATAAATAAAAAAA [TGCATGCA_site812] | 9.89
87 | TATATATATTTATGCACACAAAATATATTATAGAAT [CACACA_site3740] | 9.74
